# Assay results: PubChem BioAssay (NCATS)
# This is one part of the list. Shown are side measurements of this screen, not its main read-out; they come without a call. For some assays here: Most of these compounds were active or inconclusive in the main read-out, so they are no random draw. The note in brackets gives the kind of curve behind each potency; many fits are weak.
# Tests used:
# [1] = target: Nicotinamide N-methyltransferase (Homo sapiens) (UniProt P40261); experiment: Confirmatory Screen for Target Class Profiling of Small Molecule Inhibitors of Methyltransferases (AID 1745852); conditions: MTase-Glo luminescence, SAH detection, recombinant enzyme; measured here: NNMT inhibition potency;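 further: inhibitor potency for blocking SAH production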
# [2] = target: Histamine N-methyltransferase (Homo sapiens) (UniProt P50135); experiment: as above; conditions: MTase-Glo luminescence, SAH detection, recombinant enzyme; measured here: HNMT inhibition potency
# [3] = qHTS drug screen for cell cycle checkpoint inhibitors in PARPi-resistant BRCA-mutant ovarian cancer cell lines. (AID 1963452); conditions: PEO1/OlaR viability, CellTiter-Glo luminescence, 96 h
# Outline: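 PEO1, PEO4 and PEO1/OlaR ovarian cancer cells, 600 per well, exposed 96 h at 37C to a dilution series. Viability read by CellTiter-Glo luminescence, normalized to DMSO and empty wells; activity summarized as Z-AUC.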
# [4] = S16 Schwann cell PMP22 intronic element beta-lactamase assay (AID 624044); conditions: S16 rat Schwann cells, PMP22 element beta-lactamase FRET, 24 h; further: nearly all actives have a fitted effect of over 15% in size
# Outline: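 Rat S16 Schwann cells with beta-Lac driven by a PMP22 intronic element, compound-treated 24 h at 37 °C. LiveBLAzer FRET B/G read: 460 nm normalized to potassium clavulanate vs DMSO; 535 nm FRET as viability; concentration-effect curves classified.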
# [5] = qHTS for identification of novel therapeutic agents for treatment of microphthalmiaassociated transcription factor (MiT) renal cell carcinoma (RCC) (AID 1963991); conditions: CellTiter-Glo, 48 h; for z-score: stronger effect = lower value
# Outline: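 Curves over 11 concentrations were fitted to CellTiter-Glo luminescence, scaled between empty wells (0%) and DMSO (100%) viability. Cells were UOK109, UOK124 and UOK145 TFE3-fusion RCC lines at 500/well, exposed 48 hours at 37 C.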
# [6] = qHTS Assay for Modulators of Human Peripheral Myelin Protein 22 (PMP22) Expression/Activity (AID 1967); conditions: Cell-based PMP22 reporter, dual-color luciferase ratio
# Outline: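 Mouse MSC80 Schwann cells carrying Pmp22 promoter–green click beetle luciferase plus EF-alpha–red luciferase control, dosed 24 h at 37 °C. Dual-filter luminescence, overlap-corrected; %Activity from green/red ratio normalised to untreated cells, concentration-response curves fitted.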
# [7] = qHTS Validation Assay to Find Inhibitors of Chronic Active B-Cell Receptor Signaling (AID 485345); conditions: ABC-DLBCL cells, chronic BCR signaling reporter
# Outline: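 TMD8 ABC-DLBCL cells stably carrying doxycycline-inducible IkappaBalpha–green luciferase fusion plus unfused red luciferase; compounds 46 uM to 3 nM, 4 h at 37C with doxycycline. Corrected green/red luminescence ratio normalized to 10 uM MG-132 and basal cell wells; curves fitted.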
# [8] = measured here: PEO1 parental viability
# [9] = measured here: 460 nm blue channel
# [10] = TFE3-RCC UOK109 viability, measured here: UOK109 Z-AUC
# [11] = TFE3-RCC viability, measured here: UOK124 Z-AUC
# [12] = TFE3-RCC viability, measured here: UOK124 cell viability
# [13] = TFE3-RCC viability, measured here: UOK145 Z-AUC
# [14] = TFE3-RCC viability, measured here: UOK145 cell viability
# Tags describe the fitted curve by direction and shape.
# Sequence of UniProt P50135 (P50135 whole entry, looked up): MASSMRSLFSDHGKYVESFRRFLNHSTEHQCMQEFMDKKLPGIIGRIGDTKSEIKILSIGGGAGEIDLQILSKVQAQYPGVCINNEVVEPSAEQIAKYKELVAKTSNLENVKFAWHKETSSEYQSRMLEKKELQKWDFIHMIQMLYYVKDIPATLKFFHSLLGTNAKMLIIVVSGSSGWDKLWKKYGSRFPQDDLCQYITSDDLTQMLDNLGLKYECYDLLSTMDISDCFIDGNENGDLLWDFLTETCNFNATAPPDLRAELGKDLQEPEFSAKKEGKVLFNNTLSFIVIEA
# Sequence of UniProt P40261 (P40261 whole entry, looked up): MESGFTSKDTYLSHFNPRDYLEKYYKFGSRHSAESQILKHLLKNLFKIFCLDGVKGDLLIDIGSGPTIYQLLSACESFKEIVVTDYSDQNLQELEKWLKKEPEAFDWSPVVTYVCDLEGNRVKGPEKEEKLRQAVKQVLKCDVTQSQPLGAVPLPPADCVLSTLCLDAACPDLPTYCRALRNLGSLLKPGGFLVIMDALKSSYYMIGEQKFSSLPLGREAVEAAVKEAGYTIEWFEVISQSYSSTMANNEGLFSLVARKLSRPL
smiles,measurement,setting,value
O=C(O)c1cc(O)c2cccc(O)c2c1O[C@@H]1O[C@H](CO)[C@@H](O)[C@H](O)[C@H]1O,IC50,[1],"14.9 µM [falling, partial curve]"
COc1cc(C(=O)O)ccc1NC(=O)[C@@H]1N[C@@H](CC(C)(C)C)[C@](C#N)(c2ccc(Cl)cc2F)[C@H]1c1cccc(Cl)c1F,IC50,[1],"30.4 µM [falling, single point]"
NC[C@@](O)(c1ccc(Cl)cc1)c1ccc(-c2cn[nH]c2)cc1,IC50,[2],"12.1 µM [falling, partial curve]"
same,AC50,[3]; [8],"15.5 µM [falling, partial curve]"
same,AC50,[3]; measured here: PEO4 viability,"8.71 µM [falling, partial curve]"
Cc1[nH]c2ccccc2c1CCNCc1ccc(/C=C/C(=O)NO)cc1,IC50,[2],"12.2 µM [falling, partial curve]"
same,AC50,[3]; [8],"0.195 µM [falling, full curve]"
same,AC50,[3]; measured here: PEO4 viability,"0.174 µM [falling, full curve]"
Cc1cc(F)ccc1NS(=O)(=O)c1ccc2[nH]c3c(c2c1)CCCC3,IC50,[1],"15.2 µM [falling, partial curve]"
Cc1ccc2nc(N)[nH]c(=O)c2c1Sc1ccncc1,AC50,[4]; [9],"4.46 µM [falling, full curve, poor fit]"
same,AC50,[4]; measured here: 530 nm viability channel,"4.47 µM [falling, full curve, poor fit]"
same,IC50,[2],"19.2 µM [falling, partial curve]"
CC(C)c1cc(CNc2nc(Nc3cc(C4CC4)[nH]n3)cc(N3CCN(C)CC3)n2)on1,IC50,[2],"17.1 µM [falling, partial curve]"
same,AC50,[3]; [8],"1.38 µM [falling, full curve]"
same,AC50,[3]; measured here: PEO4 viability,"0.219 µM [falling, full curve]"
CC(C)CCn1c(=O)c2ccccc2n2c(CCC(=O)N3CCN(c4cccc(Cl)c4)CC3)nnc12,IC50,[1],"6.81 µM [falling, full curve]"
Clc1ccc(C2(c3ccc(-c4cn[nH]c4)cc3)CCNCC2)cc1,IC50,[2],"0.482 µM [falling, full curve]"
same,AC50,[3]; [8],"17.4 µM [falling, single point]"
same,AC50,[3]; measured here: PEO4 viability,"12.3 µM [falling, partial curve]"
same,z-score,[5]; [10],1.03
same,z-score,[5]; [11],-2.48
same,AC50,[5]; [12],"23.5 µM [falling, partial curve]"
same,z-score,[5]; [13],-1.06
same,AC50,[5]; [14],"26.4 µM [falling, single point]"
O=C(c1ccc(Nc2nccc(-c3cc4ccccc4s3)n2)cc1)N1CCC(N2CCCC2)CC1,IC50,[2],"17.1 µM [falling, partial curve]"
same,AC50,[3]; [8],"15.5 µM [falling, partial curve]"
same,AC50,[3]; measured here: PEO4 viability,"2.75 µM [falling, full curve]"
same,z-score,[5]; [10],-1.09
same,z-score,[5]; [11],-0.494
same,AC50,[5]; [12],"7.43 µM [falling, full curve]"
same,z-score,[5]; [13],-0.924
same,AC50,[5]; [14],"7.43 µM [falling, full curve]"
O=C(NCCCNc1nc(Nc2cccc(CN3CCOCC3)c2)ncc1C1CC1)C1CCC1,IC50,[2],"17.1 µM [falling, partial curve]"
same,AC50,[3]; [8],"13.8 µM [falling, partial curve]"
same,AC50,[3]; measured here: PEO4 viability,"6.16 µM [falling, partial curve]"
Cc1sc2c(c1C)C(c1ccc(Cl)cc1)=N[C@H](CC(=O)NCCCCNC(=O)COc1cccc3c1C(=O)N([C@H]1CCC(=O)NC1=O)C3=O)c1nnc(C)n1-2,IC50,[1],"19.2 µM [falling, partial curve]"
COCCOc1ccc2c(c1)ncn2-c1ccc2cccc(N3CCC(N)CC3)c2n1,IC50,[2],"21.5 µM [falling, partial curve]"
same,AC50,[3]; [8],"15.5 µM [falling, single point]"
same,AC50,[3]; measured here: PEO4 viability,"24.5 µM [falling, single point]"
same,z-score,[5]; [10],-0.27
same,z-score,[5]; [11],0.495
same,AC50,[5]; [12],"23.5 µM [falling, partial curve]"
same,z-score,[5]; [13],-0.68
same,AC50,[5]; [14],"16.6 µM [falling, partial curve]"
C=CCn1c(=O)c2cnc(Nc3ccc(N4CCN(C)CC4)cc3)nc2n1-c1cccc(C(C)(C)O)n1,IC50,[2],"17.1 µM [falling, partial curve]"
same,AC50,[3]; [8],"0.11 µM [falling, full curve]"
same,AC50,[3]; measured here: PEO4 viability,"0.195 µM [falling, full curve]"
same,AC50,[5]; [12],"1.66 µM [falling, full curve]"
same,AC50,[5]; [14],"0.187 µM [falling, full curve]"
CN1CCc2c(n(Cc3ccc(C(=O)NO)cc3)c3ccccc23)C1,IC50,[2],"8.57 µM [falling, partial curve]"
same,z-score,[5]; [10],0.383
same,z-score,[5]; [11],-0.528
same,AC50,[5]; [12],"20.9 µM [falling, partial curve]"
same,z-score,[5]; [13],0.211
same,AC50,[5]; [14],"26.4 µM [falling, single point]"
CNCc1ccc(-c2[nH]c3cc(F)cc4c3c2CCNC4=O)cc1,IC50,[2],"21.5 µM [falling, partial curve]"
same,z-score,[5]; [10],-0.408
same,z-score,[5]; [11],-0.238
same,z-score,[5]; [13],-0.377
same,AC50,[5]; [14],"37.2 µM [falling, partial curve, poor fit]"
CCCS(=O)(=O)c1nc(NC2CC2)cc(-c2ccc3c(ccn3C3CC(C)(C)NC(C)(C)C3)c2)n1,IC50,[2],"6.38 µM [falling, partial curve]"
same,AC50,[3]; [8],"9.17 µM [falling, single point]"
same,AC50,[3]; measured here: PEO4 viability,"5.15 µM [falling, single point]"
CCN1CCN(Cc2ccc(NC(=O)Nc3ccc(Oc4cc(NC)ncn4)cc3)cc2C(F)(F)F)CC1,IC50,[2],"6.07 µM [falling, full curve]"
same,AC50,[3]; [8],"3.09 µM [falling, full curve]"
same,AC50,[3]; measured here: PEO4 viability,"3.09 µM [falling, full curve]"
CC1=C(C(=O)OCc2ccccc2)C(c2ccc(-c3ccccc3)cc2)NC(=O)N1CCCCCC(=O)O (centres undefined),IC50,[1],"30.4 µM [falling, single point]"
CCN(CC)CCOc1ccc(Nc2ncc3cc(-c4c(Cl)cccc4Cl)c(=O)n(C)c3n2)cc1,IC50,[2],"7.69 µM [falling, partial curve]"
same,AC50,[3]; [8],"0.549 µM [falling, full curve]"
same,AC50,[3]; measured here: PEO4 viability,"0.389 µM [falling, full curve]"
same,AC50,[5]; [12],"0.469 µM [falling, full curve]"
same,AC50,[5]; [14],"1.32 µM [falling, partial curve]"
CC1CC(=O)C2=C(O1)OC1(C)CCC3C(C)(C)C4OC4C(=O)C3(C)C1C2 (centres undefined),IC50,[1],"0.133 µM [falling, full curve]"
c1cc(OCCN2CCCCC2)cc(-c2n[nH]c3ccc(-c4ncn[nH]4)cc23)c1,IC50,[2],"19.2 µM [falling, partial curve]"
same,z-score,[5]; [10],0.272
same,z-score,[5]; [11],0.358
same,z-score,[5]; [13],0.409
same,AC50,[5]; [14],"37.2 µM [falling, partial curve, poor fit]"
CCN(CC)CCCCCCCCOC(=O)c1cc(OC)c(OC)c(OC)c1,AC50,"[6]; measured here: green reporter channel AC50, mouse Pmp22 promoter in mouse Schwann cells","42.6 µM [falling, partial curve]"
same,AC50,"[6]; measured here: red reporter channel AC50, EF-alpha promoter control reporter in MSC80 mouse Schwann cells","37.9 µM [falling, partial curve]"
same,AC50,[7]; measured here: CBG/CBR ratio read-out,"13 µM [falling, partial curve]"
same,AC50,[7]; measured here: CBR control luciferase (viability counter),"18.4 µM [rising, single point]"
same,IC50,[2],"21.7 µM [falling, partial curve]"
CC(C)Cn1c(=O)c2ccccc2n2c(CCC(=O)N3CCN(Cc4ccccc4)CC3)nnc12,IC50,[1],"21.5 µM [falling, partial curve]"
CC(CNC(=O)CCc1nnc2n(Cc3ccc(F)cc3)c(=O)c3ccccc3n12)c1ccccc1 (centres undefined),IC50,[1],"19.2 µM [falling, partial curve]"
N#Cc1c(O)c2c(-c3ccc(-c4ccccc4O)cc3)csc2[nH]c1=O,IC50,[1],"24.1 µM [falling, single point]"
Cc1ccc2c(c1)c1c(n2CCc2ccc(C)nc2)CCN(C)C1,IC50,[2],"21.5 µM [falling, partial curve]"
same,z-score,[5]; [10],0.257
same,z-score,[5]; [11],0.344
same,z-score,[5]; [13],0.122
CN1CCc2c(c3ccccc3n2Cc2ccc(C(=O)NO)cc2)C1,IC50,[2],"15.2 µM [falling, partial curve]"
same,AC50,[3]; [8],"24.5 µM [falling, single point]"
same,AC50,[3]; measured here: PEO4 viability,"19.5 µM [falling, partial curve, poor fit]"
same,z-score,[5]; [10],-0.419
same,z-score,[5]; [11],0.0836
same,AC50,[5]; [12],"20.9 µM [falling, partial curve]"
same,z-score,[5]; [13],-0.265
same,AC50,[5]; [14],"33.2 µM [falling, single point]"
COC(C)(C)CCn1nc(Nc2c(C)cccc2C)c2cnc(Nc3ccc(OCCN4CCCC4)c(F)c3)nc21,IC50,[2],"13.6 µM [falling, partial curve]"
same,AC50,[3]; [8],"3.89 µM [falling, partial curve]"
same,AC50,[3]; measured here: PEO4 viability,"8.71 µM [falling, partial curve]"
COc1cc2c(Nc3ccc(Br)cc3F)ncnc2cc1OCC1CCN(C)CC1,IC50,[2],"13.6 µM [falling, partial curve]"
same,AC50,[3]; [8],"13.8 µM [falling, partial curve]"
same,AC50,[3]; measured here: PEO4 viability,"19.5 µM [falling, partial curve]"
same,z-score,[5]; [10],-2.42
same,z-score,[5]; [11],-0.631
same,AC50,[5]; [12],"18.7 µM [falling, partial curve]"
same,z-score,[5]; [13],-1.71
same,AC50,[5]; [14],"14.8 µM [falling, partial curve]"
NC1=NCC2c3ccccc3Cc3ccccc3N12 (centres undefined),AC50,[4]; [9],"0.251 µM [falling, full curve, poor fit]"
same,IC50,[2],"21.7 µM [falling, single point]"
CNC(=O)c1ccc2c(C(=Nc3cccc(CN(C)C)c3)c3ccccc3)c(O)[nH]c2c1,IC50,[2],"3.41 µM [falling, full curve]"
same,AC50,[3]; [8],"27.5 µM [falling, single point]"
same,AC50,[3]; measured here: PEO4 viability,"17.4 µM [falling, partial curve, poor fit]"
same,z-score,[5]; [10],-1.01
same,z-score,[5]; [11],0.121
same,AC50,[5]; [12],"11.8 µM [falling, partial curve]"
same,z-score,[5]; [13],0.646
N#Cc1ccc(N2N=C3c4ccc(C(=O)O)cc4CC[C@@H]3[C@@H]2C2CCCC2)cc1Cl,IC50,[1],"2.15 µM [falling, full curve]"
